Source: PubChem BioAssay AID1345083 (National Center for Advancing Translational Sciences (NCATS), 2018)
In all, about 94,000 compounds went through this assay and about 6,200 (6.6%) were called active. This list was built around the results that the source calls inconclusive (neither active nor inactive); the mix of calls is not that of the screen. Calls come from the whole dose curve; as a rule, active = well fitted inhibition curve with a large enough effect; inconclusive = small, poorly fitted or top-dose-only effect; inactive = flat fitted curve, though single readings scatter. Potencies of inconclusive entries are doubtful fits and often do not repeat.

assay: Cytotoxic Profiling in HEK 293 Cell Line of Diverse Libraries Using Quantitative High-Throughput Screening; details: HEK 293 viability, ATP luminescence (CellTiter-Glo), 48-72 h; series mostly up to 115 µM; note: nearly all actives have a fitted effect of over 60% in size
Outline: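 Read-out: CellTiter-Glo ATP luminescence. Cells: HEK 293, 250 cells/well. Exposure: 48 or 72 hr, 37 degree Celsius.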
Potency is the fitted concentration of half-maximal effect; tags give direction and shape of the fitted curve.

SMILES | Potency
Clc1ccccc1C1(c2ccnc(NC3CC3)n2)CCNCC1 | inconclusive: 50.1 µM [inhibitor, partial curve, poor fit]
O=c1cc(-c2cccnc2)oc2c(NCc3ccccc3)nccc12 | inconclusive: 112 µM [inhibitor, partial curve]
Cn1cccc1CN1CCC(Oc2ccccc2-c2nc(-c3ccncc3)no2)C1 (stereo not given) | inconclusive: 50.1 µM [inhibitor, partial curve, poor fit]
CC(=O)N1C[C@@H](CO)[C@H](NC(=O)c2ccccc2)C1 | inconclusive: 89.1 µM [inhibitor, single point]
Cc1nn(-c2ccccc2)c2c1C(C)N(C1CCN(C(=O)c3ccc(F)cc3)C1)C2=O (stereo not given) | active: 44.7 µM
COc1cccc(Nc2ncc3c(n2)C(C)(C(=O)N2CCCC2)CC3)c1 (stereo not given) | inconclusive: 100 µM [inhibitor, partial curve]
COC[C@@H]1CN(C(=O)CCc2c(C)n[nH]c2C)C[C@H]1c1ccncc1 | inactive
CCc1cc(=O)n(CC(=O)N2CCN(c3ccccc3OC)CC2)c(-c2ccccc2)n1 | active: 39.8 µM
O=[S+]([O-])(c1cccc(C(F)(F)F)c1)N1CCC2(CCN(CCc3ccccc3)c3ccccc3O2)CC1 | inconclusive: 50.1 µM [inhibitor, partial curve, poor fit]
CN(C)C(=O)N1CCCC(CCc2c(F)cccc2F)C1 (stereo not given) | inconclusive: 56.2 µM [inhibitor, partial curve, poor fit]
COc1ccc(CN2CCC3(CC(=O)NC3=O)C2)cc1OCc1ccccc1 (stereo not given) | inactive
CNC(=O)[C@@H]1CN(C(=O)c2cc3ccc(OC)cc3[nH]2)C[C@H]1C1CCN(C)CC1 | inactive
CC(C)C[C@@H]1N[C@H](C(=O)NC2CCC2)Cc2cn(Cc3ccccn3)c3cccc1c23 | active: 28.2 µM
O=C(c1cccc(Cl)c1)N1CCC(c2nn(Cc3ccccc3)c(=O)[nH]2)CC1 | inactive
COc1ncccc1-c1nc(-c2c(C)noc2C)cc2cc(C(C)C)oc12 | active: 89.1 µM
CNC(=O)[C@@H]1CN(C(=O)c2cc(C)on2)C[C@H]1COC | inactive
O=C1NCc2ccccc2CC12CCN(Cc1cc(F)ccc1O)C2 (stereo not given) | inactive
COc1ccccc1-c1ccc(CN2CCC(NC(=O)c3ccccc3F)C2)cc1 (stereo not given) | inconclusive: 50.1 µM [inhibitor, partial curve, poor fit]
Clc1cccnc1-c1cc(NCc2ccccn2)nc2[nH]ccc12 | inconclusive: 89.1 µM [inhibitor, single point]
Cc1ccc(NC(=O)CC2CCCN(c3cn[nH]c(=O)c3)C2)cc1F (stereo not given) | inactive
